Among all 310,000 compounds or so, about 14,000 (4.5%) showed an effect of 50% or more. Effects have a minus sign here. Some of the results follow.
What follows are compounds tested against human ether-à-go-go-related gene (hERG) potassium channel (human, UniProt Q12809) (assay: primary screen, population patch clamp on CHO cells stably expressing hERG).
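Note: peak tail current of the secondary pulse compared with the same well before compound.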

human ether-à-go-go-related gene (hERG) potassium channel, sequence (Q12809 whole entry, looked up): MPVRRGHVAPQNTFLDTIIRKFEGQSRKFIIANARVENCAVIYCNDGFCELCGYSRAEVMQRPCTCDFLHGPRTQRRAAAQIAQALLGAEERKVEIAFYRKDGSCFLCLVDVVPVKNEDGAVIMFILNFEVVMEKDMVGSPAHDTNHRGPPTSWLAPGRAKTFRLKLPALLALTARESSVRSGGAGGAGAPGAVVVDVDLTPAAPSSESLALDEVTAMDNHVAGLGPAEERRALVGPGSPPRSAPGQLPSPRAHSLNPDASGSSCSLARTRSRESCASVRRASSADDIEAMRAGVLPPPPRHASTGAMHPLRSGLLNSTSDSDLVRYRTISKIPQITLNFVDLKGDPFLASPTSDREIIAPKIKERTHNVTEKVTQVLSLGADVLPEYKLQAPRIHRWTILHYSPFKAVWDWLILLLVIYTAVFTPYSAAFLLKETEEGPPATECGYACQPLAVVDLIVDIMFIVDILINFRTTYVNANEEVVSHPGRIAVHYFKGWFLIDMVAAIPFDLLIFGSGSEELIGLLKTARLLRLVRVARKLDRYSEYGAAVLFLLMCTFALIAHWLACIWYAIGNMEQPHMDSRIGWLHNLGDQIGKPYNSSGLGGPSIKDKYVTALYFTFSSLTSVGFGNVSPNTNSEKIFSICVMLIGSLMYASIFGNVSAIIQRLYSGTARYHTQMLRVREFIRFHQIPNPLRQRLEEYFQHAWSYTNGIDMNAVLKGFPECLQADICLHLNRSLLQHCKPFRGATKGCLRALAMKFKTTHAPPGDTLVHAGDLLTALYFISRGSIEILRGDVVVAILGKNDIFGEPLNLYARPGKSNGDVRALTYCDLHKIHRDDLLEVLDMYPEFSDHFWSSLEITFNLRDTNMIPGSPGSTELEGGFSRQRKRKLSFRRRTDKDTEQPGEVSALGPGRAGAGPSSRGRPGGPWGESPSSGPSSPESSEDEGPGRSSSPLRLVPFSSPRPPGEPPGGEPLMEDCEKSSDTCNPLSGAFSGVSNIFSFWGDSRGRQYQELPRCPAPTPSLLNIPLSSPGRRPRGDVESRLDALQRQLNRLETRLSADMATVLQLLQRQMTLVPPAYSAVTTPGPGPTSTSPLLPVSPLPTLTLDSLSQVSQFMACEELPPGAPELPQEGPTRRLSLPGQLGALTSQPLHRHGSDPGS

Row | SMILES | hERG current change (%, negative = inhibition) at 10uM
1 | COc1ccc(CNCCNC(=O)c2ccco2)c(OC)c1OC | -7.3%
2 | O=C1[C@H]2[C@@H](c3ccc(F)cc3)N3C(=O)N(c4cccc(Br)c4)C(=O)[C@@]3(Cc3ccc(Cl)cc3)[C@H]2C(=O)N1C1CCCCC1 | 12.6%
3 | CCc1nc(NCCc2ccccn2)c2nnn(Cc3ccccc3F)c2n1 | -5.27%
4 | Cc1ccnc(NC(=O)c2sc3ccccc3c2Cl)c1 | -25.3%
5 | Cc1ccccc1CN1C(=O)c2ccccc2Sc2ccc(C(=O)O)cc21 | -43.8%
6 | S=c1[nH]nc(-c2ccco2)n1C1CCCCC1 | 12.7%
7 | CCOC(=O)N1CCN(S(=O)(=O)c2ccc(C)c(C(=O)NC3CCCCC3)c2)CC1 | 1.42%
8 | C=C1CC(C(=O)N/N=C/c2ccccc2)C1 | 11.9%
9 | Cc1ccc(-n2c3c(cc(C(=O)N4CCN(C)CC4)c2=O)C(=O)CC(C)(C)C3)cc1 | -0.042%
10 | COCCNc1nnc(SCC(=O)c2c[nH]c3ccccc23)s1 | 3.79%
11 | COc1ccc(CN(C)C(=O)c2cc(S(=O)(=O)Nc3ccccc3F)ccc2C)c(OC)c1 | -23.1%
12 | COC(=O)c1ccccc1-n1cccc1C(=O)NP(=O)(N1CCOCC1)N1CCOCC1 | 5.36%
13 | O=C(O)CCCCOn1ccnc1 | 18.3%
14 | O=C(NCc1cccnc1)c1nn2cccnc2c1Cl | 15.1%
15 | Cc1ccccc1N=CC=C1OC(C)(C)C(C)(C)O1 | -1.54%
16 | CNS(=O)(=O)c1cccc(C(=O)NCC(c2cccs2)N(C)C)c1 (stereo not shown) | -5.25%
17 | Cc1ccc(S(=O)(=O)/N=C2/NC(=O)/C(=C/c3cc([N+](=O)[O-])ccc3O)S2)cc1 | 14.9%
18 | CCC1=C2CC[C@H]3C(=O)N(c4ccccc4)C(=O)[C@H]3[C@H]2[C@@]2(C)C(=NCC3CC3)OC(=O)N2C1=O | 7.45%
19 | O=C(CNC(=O)c1ccccc1F)NCCOc1cccc(Cl)c1Cl | -13.1%
20 | COc1cc(/C=N/NC(N)=S)ccc1OCC(=O)N1CCOCC1 | 5.47%
21 | CCC(=O)N1CCc2cc(S(=O)(=O)CCC(=O)NCCC3=CCCCC3)ccc21 | -4.4%
22 | O=C(Cn1ccc([N+](=O)[O-])n1)NCc1cccnc1 | 16.9%

Row | SMILES | hERG current change (%, negative = inhibition) at 10uM
23 | O=C(O)c1cccnc1SC1CC(=O)N(c2ccc(OC(F)F)cc2)C1=O (stereo not shown) | -4.25%
24 | CNC(=S)N/N=C(\C)c1cccc(C(F)(F)F)c1 | -7.29%
25 | O=C1NC(=O)C2(Cc3ccccc3N3CCCC32)C(=O)N1c1ccc(Cl)cc1 (stereo not shown) | -30.2%
26 | COc1ccccc1/C=C/CN1CCNC(=O)C1CC(=O)NCCc1cnccn1 (stereo not shown) | 20%
27 | CCOC(=O)c1cnc2nc(NCc3ccc(OCc4ccccc4)cc3)[nH]n2c1=O | 5.06%
28 | CCCNC(=O)N(C)c1nncnc1C(=O)NC | 0.627%
29 | Cn1c(=O)n(/N=C/c2ccccc2)c2ccccc21 | 2.26%
30 | CC(C)(C)c1cccc(OCCCSc2ncccn2)c1 | -19.6%
31 | CCc1ccccc1NC(=O)NCc1ccccn1 | 8.47%
32 | CCCOc1ccc(N2C(=O)CC(N(CCc3ccccc3)C(=O)c3ccccc3)C2=O)cc1 (stereo not shown) | 10.8%
33 | COC(=O)c1ccccc1NC(=O)Nc1ccc(Br)cn1.Cl | 27%
34 | N#CC1=C(N)OC2=C(C(=O)CCC2)C12C(=O)N1CCCc3cccc2c31 (stereo not shown) | 13.8%
35 | CCCOc1ccc(/C=N/NC(=O)c2ccc3c(c2)OCO3)c(OCCC)c1 | -17.4%
36 | COc1ccc(COC(=O)CCc2c[nH]c3ccccc23)cc1F | 15.8%
37 | Cc1ccccc1C(=O)N1CCC(C(=O)N2CCN(c3ncccn3)CC2)CC1 | 7.94%
38 | O=S(=O)(c1ccccc1)c1nc(-c2ccccc2Cl)oc1NCCN1CCOCC1 | -12.6%
39 | O=C1CCN(CCc2ccccc2)CCN1CCO | -4.16%
40 | Cc1ccc2c(c1)c(=O)c1c3n2CCN(CC#N)C3CC1 (stereo not shown) | 12%
41 | Cc1ccc(S(=O)(=O)N2CCOCC2)cc1C(=O)N1CCN(S(=O)(=O)c2cccc(F)c2)CC1 | -6.79%
42 | CCCN1C2CCCC1CC(NC(=O)c1cccc([N+](=O)[O-])c1)C2 (stereo not shown) | -36.8%
43 | COc1ccc(C(=O)NCCN2CCOCC2)c(OC)c1 | 25.7%
44 | COc1cccc(C(=O)NCCS(=O)(=O)N2CCCC2)c1 | -11.1%

Row | SMILES | hERG current change (%, negative = inhibition) at 10uM
45 | COc1cc(C2c3[nH]c4ccccc4c3CCN2Cc2cn(C)nc2C)ccc1F (stereo not shown) | 1.02%
46 | C/C(=N\NC(=S)Nc1cccc(C)c1)c1ccccc1 | 4%
47 | Cc1ccc(C)c(NS(=O)(=O)c2cc(C(=O)NCc3ccco3)ccc2C)c1 | -52.3%
48 | COCc1cc(=O)n2[nH]c(SCc3ccccc3)nc2n1 | 0.677%
49 | Cc1cccc(C(=O)NCCc2nnc(SCC(=O)Nc3cccc(C(=O)O)c3)n2C)c1 | 18.5%
50 | COC(=O)c1ccccc1N=Nc1c(C)[nH][nH]c1=O | -9.31%
51 | O=c1cc(NCc2ccco2)[nH]c(=O)n1-c1ccc(Br)cc1 | 1.29%
52 | C=C(C)C1CC=C(C)/C(=N/NC(=O)c2ccc(NC(=O)CCC)cc2)C1 (stereo not shown) | -7.54%
53 | O=C(CN1CCc2ccccc2C1)Nc1ccc(Br)cc1 | -34.2%
54 | Cc1ccc2c(c1)N(C(=O)NC1CCCCC1)C(C)(C)CC2C (stereo not shown) | -14%
55 | Cc1ccc(Cn2c(C3CCCN3c3nc(-c4cc(Cl)c(N)c(Cl)c4)cs3)nc3cc(C(=O)NCCCO)ccc32)cc1 (stereo not shown) | 12.2%
56 | O=C(CSc1nnc(NC2CCCCC2)s1)Nc1ccc2c(c1)C(=O)c1ccccc1C2=O | 9.89%
57 | O=C(NC1CCCC1)C(c1ccccc1)N(Cc1ccco1)C(=O)Cc1cccs1 (stereo not shown) | -7.87%
58 | CCOc1c(Br)cc(CNc2ncn[nH]2)cc1OC | 2.2%
59 | CCCc1cc(NCCCN2CCOCC2)n2c(nc3ccccc32)c1C#N | -75.7%
60 | CC1(C)C(=O)NCCN1C(=O)CCCC(=O)O | 8.77%
61 | O=C(CSc1nnnn1-c1ccccc1)Nc1ccc(Cl)cc1 | -21.2%
62 | C=CCn1c(O)c(C(CC)=NC2CC2)c(=O)[nH]c1=O | -12%
63 | Cc1ccc(NC(=O)c2nnn(-c3ccc4c(c3)OCCO4)c2N)cc1 | 9.9%
64 | CCCCc1nc2ccccc2c(=O)n1-c1ccccc1[N+](=O)[O-] | -8.32%
65 | Cc1cc(C)c(Cn2c3ccccc3c3cnn(CC(=O)NCCN4CCOCC4)c(=O)c32)c(C)c1 | 2.31%
66 | COc1ccc2c(c1OC)C(=O)OC2CC(=O)c1ccc(O)cc1 (stereo not shown) | -3.43%

Row | SMILES | hERG current change (%, negative = inhibition) at 10uM
67 | CCOC(=O)c1c(NC(=O)CSc2n[nH]c(-c3ccco3)n2)sc(C)c1C | 11.8%
68 | CC(=O)c1ccc(NC(=O)CCc2c(C)nn(-c3ccc(N4CCOCC4)nn3)c2C)cc1 | -8.54%
69 | O=C(O)CCCc1nc(-c2ccc(Cl)cc2)no1 | 2.35%
70 | Cc1ccsc1C1C(C#N)=C(N)OC2=C1C(=O)CC(C)(C)C2 (stereo not shown) | -6.69%
71 | CC(=O)[C@H]1[C@H](C#N)C[C@H]2[C@@H]3CC=C4C[C@@H](O)CC[C@]4(C)[C@H]3CC[C@@]21C | 19%
72 | COC(=O)c1ccc(C(=O)OC)c(NC(=O)c2cccnc2)c1 | 8.65%
73 | Cc1c2cn[nH]c(=O)c2c(C)n1Cc1ccc(F)cc1 | -5.17%
74 | O=C(CN1CCN(Cc2ccccc2Cl)CC1)N/N=C/c1cccs1 | -20.4%
75 | O=C(/C=C/Nc1cccc(C(F)(F)F)c1)c1ccco1 | 6.62%
76 | CCCCc1nnc(NC(=O)CSc2nc(N)cc(=O)[nH]2)s1 | 25.7%
77 | C#CC[N+]1(C)[C@@H]2CC(OC(=O)C(CO)c3ccccc3)C[C@H]1C(O)C2.[Br-] (stereo partly shown) | 7.98%
78 | COc1ccc(Cl)cc1C(=O)CSc1nc(N)cc(N)n1 | 0.369%
79 | O=C(NCCO)/C(=C\c1ccco1)NC(=O)c1ccco1 | 1.44%
80 | CN(Cc1cc(=O)n2ccsc2n1)Cc1nc2ccccc2c(=O)[nH]1 | -0.504%
81 | NC(=O)c1ccccc1NC(=O)CCCCCn1nnc2ccccc2c1=O | -19%
82 | CN1CCN(c2ccc(NC(=O)c3cc([N+](=O)[O-])ccc3N3CCOCC3)cc2)CC1 | -2.4%
83 | NC(=S)COc1ccccc1 | 17.3%
84 | CC(c1nc2ccccc2c(=O)[nH]1)N(C)CCOc1ccc(Cl)cc1 (stereo not shown) | -39.2%
85 | COc1cc(-c2nc3ccccn3c2/N=C/c2cccc(OC)c2O)ccc1O | -7.33%
86 | CC(C)Oc1ccc(C2CC(=O)N(c3cccc(C(=O)O)c3)C2=O)cc1 (stereo not shown) | 6.14%
87 | Cc1nonc1C(=O)N/N=C/c1ccc(O)cc1O | 14%
88 | COc1cccc(-n2nnc3c(=O)n(C/C=C/c4ccccc4)cnc32)c1 | -15.9%

Source: publication PMC4336329 (PLoS ONE, 2015)
